According to the supplement of paper PMC4967469:
IC50 is the fitted dose that halves viability relative to control wells, and lower means more sensitive; a fit beyond the top or the lowest dose is shown as a bound at that dose. AUC sums up the same curve from the lowest dose to the 256-fold higher top dose; values near 1 show little effect. For some assays here: An inferred top dose is not printed in the source and was worked back from the curve model. For some assays here: Drugs with an entry number were screened twice under separate entries, and the two screens often disagree.

How the values were obtained:
Assay in all cases: Viability of human cancer cell lines after 72 h of drug (GDSC screen)
AZD-0530 = compound: CN1CCN(CCOc2cc(OC3CCOCC3)c3c(Nc4c(Cl)ccc5c4OCO5)ncnc3c2)CC1 [AZD-0530]; details: top dose 2 µM
Description: (§1)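 Human cancer cell lines in 384-well plates, medium with 10% serum, drug for 72 h over a 256-fold dose range (nine 2-fold or five 4-fold steps up to the top dose). Adherent lines were fixed and stained with the nucleic acid dye Syto60, suspension lines read with resazurin; signal relative to control wells, capped at 0 and 100%. One two-parameter sigmoid per drug and line, fitted in a mixed model over all curves with the slope shared within a line.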

Epothilone B = compound: C/C(=C\c1csc(C)n1)[C@@H]1C[C@@H]2O[C@]2(C)CCC[C@H](C)[C@H](O)[C@@H](C)C(=O)C(C)(C)[C@@H](O)CC(=O)O1 [Epothilone B]; details: top dose 0.032 µM; top dose inferred
Description: as §1

PHA-793887 = compound: CC(C)CC(=O)Nc1n[nH]c2c1CN(C(=O)C1CCN(C)CC1)C2(C)C [PHA-793887]; details: top dose 10.24 µM
Description: as §1

Y-39983 = compound: C[C@@H](N)c1ccc(C(=O)Nc2ccnc3[nH]ccc23)cc1 [Y-39983]; details: top dose 20 µM; top dose inferred
Description: as §1

Pyrimethamine = compound: CCc1nc(N)nc(N)c1-c1ccc(Cl)cc1 [Pyrimethamine]; details: top dose 20 µM; top dose inferred
Description: as §1

PLX4720 = compound: CCCS(=O)(=O)Nc1ccc(F)c(C(=O)c2c[nH]c3ncc(Cl)cc23)c1F [PLX4720]; details: top dose 10 µM
Description: as §1

TPCA-1 = compound: NC(=O)Nc1sc(-c2ccc(F)cc2)cc1C(N)=O [TPCA-1]; details: top dose 20 µM
Description: as §1

[1] = screen: GDSC drug entry 1371, top dose inferred

Cell Line | AUC (AZD-0530) | IC50 (AZD-0530) [µM] | AUC (Epothilone B) | IC50 (Epothilone B) [µM] | AUC (PHA-793887) | IC50 (PHA-793887) [µM] | AUC (Y-39983) | IC50 (Y-39983) [µM] | AUC (Pyrimethamine) | IC50 (Pyrimethamine) [µM] | AUC (PLX4720; screen: GDSC drug entry 1036) | IC50 (PLX4720; screen: GDSC drug entry 1036) [µM] | AUC (PLX4720; [1]) | IC50 (PLX4720; [1]) [µM] | AUC (TPCA-1) | IC50 (TPCA-1) [µM]
ES4 (Ewing sarcoma, adherent) | 0.892 | > 2 | 0.364 | 0.000794 | 0.734 | 3.34 | 0.893 | > 20 | 0.65 | 3.47 | 0.93 | > 10 | 0.834 | 7.9 | 0.656 | 3.63
ES5 (Ewing sarcoma, adherent) | 0.982 | > 2 | 0.853 | 0.031 | 0.745 | 3.63 | 0.9 | > 20 | 0.976 | > 20 | 0.774 | 4.51 | 0.931 | > 10 | 0.575 | 2.07
ES6 (Ewing sarcoma, adherent) | 0.954 | > 2 | 0.669 | 0.00663 | 0.979 | > 10.2 | 0.894 | > 20 | 0.814 | 14.3 | 0.961 | > 10 | 0.918 | > 10 | 0.799 | 12.3
ES7 (Ewing sarcoma, adherent) | 0.984 | > 2 | 0.685 | 0.0067 | 0.361 | 0.261 | 0.8 | 10 | 0.825 | 12.4 | 0.969 | > 10 | 0.941 | > 10 | 0.631 | 2.9
ES8 (Ewing sarcoma, adherent) | 0.975 | > 2 | 0.48 | 0.00177 | 0.248 | 0.129 | 0.809 | 9.51 | 0.473 | 1.06 | 0.985 | > 10 | 0.978 | > 10 | 0.579 | 2.02
ETK-1 (biliary tract, adherent) | 0.902 | > 2 | 0.422 | 0.00119 | 0.746 | 3.64 | 0.93 | > 20 | 0.666 | 3.88 | 0.983 | > 10 | 0.94 | > 10 | 0.903 | > 20
EVSA-T (breast, adherent) | 0.975 | > 2 | 0.867 | 0.0223 | 0.878 | 7.85 | 0.916 | > 20 | 0.991 | > 20 | 0.979 | > 10 | 0.991 | > 10 | 0.68 | 3.67
EW-1 (Ewing sarcoma, semi-adherent) | 0.986 | > 2 | 0.474 | 0.00171 | 0.346 | 0.249 | 0.937 | > 20 | 0.482 | 1.12 | 0.977 | > 10 | 0.988 | > 10 | 0.701 | 4.34
